Laboratory results reported in US20220267438A1 (Janssen / Centocor, published 2022).

Experiments:
[1] = molecular target: T1, human CD3 (CD3ε of the TCR/CD3 complex) on primary human pan T cells (human, UniProt P07766); experiment: flow cytometry, human pan T cells, Donor 3, 1 h 37C; Run 4
T1 construct: whole, on cells; On T cells CD3ε stands in the whole TCR/CD3 complex
Experimental: (§1) For binding of BGCB463 to human and cynomolgus Pan T cells, three human donors (Hemacare) were selected, quickly thawed, resuspended, and aliquoted into a 96-well plate at 1×10⁶ cells/mL. Cells were then washed, Fc blocked if necessary (Innovex), and stained with viability dye (Invitrogen). BGCB463 and its corresponding isotype (B23B251) were diluted in complete media to an initial concentration of 2 μM and 1:3 serial dilutions in duplicate were performed for a dose-response curve. The cells were incubated with molecules at 4° C. or 37° C. for 1 hour. When necessary, incubation with 90% human serum (Sigma) was also performed as described above.
(§2) First, FACS-based binding for GPRC5D and BCMA binding arms of the trispecific molecule was determined by measuring the effective concentration (EC) range from a dose-response curve using a 4-parameter fit at 37° C. for 1 hr. This was assessed using an H929 suite of cells (WT, GPRC5D-KO, BCMA-KO, and GPRC5D/BCMA KO), and a similar MM.1R suite. Cell based EC₅₀ is approximately 13 nM for WT H929 (FIGS. 2A-2D, Table 7) and 2.4 nM for WT MM.1R (FIGS. 3A-3D, Table 8). […] Next, cell-based EC₅₀ was determined for the CD3-binding Fab arm using purified Pan T cells from three random donors. […] Next, dose responsive binding was assessed at 4° C. to remove any potential biological effects. […]

[2] = molecular target: T1, human CD3 (CD3ε of the TCR/CD3 complex) …; experiment: flow cytometry, human pan T cells, Donor 1, 1 h 37C; Run 4
Experimental: as §1, §2

T1 sequence (P07766 23-207, one chain of several): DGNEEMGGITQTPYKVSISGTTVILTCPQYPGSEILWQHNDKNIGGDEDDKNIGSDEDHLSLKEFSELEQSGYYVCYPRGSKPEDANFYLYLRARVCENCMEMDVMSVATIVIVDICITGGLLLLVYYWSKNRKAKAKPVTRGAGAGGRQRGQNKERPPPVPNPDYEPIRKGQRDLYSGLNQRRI

B1: BGCB463 (other)
heavy: QVQLQQSGPRLVRPSQTLSLTCAISGDSVFNNNAAWSWIRQSPSRGLEWLGRTYYRSKWLYDYAVSVKSRITVNPDTSRNQFTLQLNSVTPEDTALYYCARGYSSSFDYWGQGTLVTVSSASTKGPSVFPLAPSSKSTSGGTAALGCLVKDYFPEPVTVSWNSGALTSGVHTFPAVLQSSGLYSLSSVVTVPSSSLGTQTYICNVNHKPSNTKVDKKVEPKSCDKTHTCPPCPAPEAAGGPSVFLFPPKPKDTLMISRTPEVTCVVVSVSHEDPEVKFNWYVDGVEVHNAKTKPREEQYNSTYRVVSVLTVLHQDWLNGKEYKCKVSNKALPAPIEKTISKAKGQPREPQVYTLPPSREEMTKNQVSLSCAVKGFYPSDIAVEWESNGQPENNYKTTPPVLDSDGSFFLVSKLTVDKSRWQQGNVFSCSVMHEALHNRFTQKSLSLSPGK
light: QSALTQPASVSGSPGQSITISCTGTSSNIGTYKFVSWYQQHPDKAPKVLLYEVSKRPSGVSSRFSGSKSGNTASLTISGLQAEDQADYHCVSYAGSGTLLFGGGTKLTVLGQPKAAPSVTLFPPSSEELQANKATLVCLISDFYPGAVTVAWKADSSPVKAGVETTTPSKQSNNKYAASSYLSLTPEQWKSHRSYSCQVTHEGSTVEKTVAPTECS
chain: [letters of about 100 residues not shown]QFPHTFGQGTKLEIKGGSEGKSSGSGSESKSTGGSQVTLKESGPVLVKPTETLTLTCTVSGFSLTNIRMSVSWIRQPPGKALEWLAHIFSNDEKSYSTSLKSRLTISRDTSKSQVVLTLTNVDPVDTATYYCARMRLPYGMDVWGQGTTVTVSSEPKSSDKTHTCPPCPAPEAAGGPSVFLFPPKPKDTLMISRTPEVTCVVVSVSHEDPEVKFNWYVDGVEVHNAKTKPREEQYNSTYRVVSVLTVLHQDWLNGKEYKCKVSNKALPAPIEKTISKAKGQPREPQVYTLPPSREEMTKNQVSLWCLVKGFYPSDIAVEWESNGQPENNYKTTPPVLDSDGSFFLYSKLTVDKSRWQQGNVFSCSVMHEALHNHYTQKSLSLSPGKGGSEGKSSGSGSESKSTGGSEIVLTQSPGTLSLSPGERATLSCRASQSISSSFLTWYQQKPGQAPRLLIYGASSRATGIPDRFSGGGSGTDFTLTISRLEPEDFAVYYCQHYGSSPMYTFGQGTKLEIKGGSEGKSSGSGSESKSTGGS[letters of about 100 residues not shown]DEGYSSGHYYGMDVWGQGTTVTVSS
notes: Trispecific IgG1 antibody (L234A, L235A, D265S); Heavy chain 1 = anti-CD3 (CD3B376) Fab heavy chain with hole and RF mutations; also called BGCB463.003; BGCB463.004
EC50 [1]: 255 nM | EC50 [2]: 210 nM
